Molecules are shown by their SMILES.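 Test compounds were applied to cells in 96-well plates for 48 hours at 5 doses. GI50 marks 50% less growth.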 The source made the active and inactive calls. Cut-off read from the data, not from the text of the source: active = GI50 up to about 1.1 µM and inactive = higher.

In the assay the test system is NCI-H322M. Kind of assay: inhibition of tumour cell growth, NCI panel, 48 h.
On to `Nc1nc(O)c2c(ncn2CCO)n1`, for which the GI50 was inactive: > 100 µM.

Consider `C/C(=N\NS(=O)(=O)c1ccc(C)cc1)c1c(O)cc(C)oc1=O`, for which the GI50 is inactive: > 100 µM.

With `C[C@]12CCc3nn(-c4ccccc4)nc3C1CC[C@@H]1C2CC[C@]2(C)C(=O)CCC12` (stereo partly specified), the GI50 was inactive: > 100 µM.

On to `CCOC(=O)c1c(SC(=O)c2cc(OC)c(OC)c(OC)c2)n(-c2ccccc2)c(=S)n(-c2ccccc2)c1=O`, for which the GI50 is inactive: > 100 µM.

For the compound `Cc1cc(S(=O)(=O)Nc2nc(N)nc(N3N=CCC3C)n2)c(S)cc1Cl` (stereo unspecified), the GI50 was inactive: > 10 µM.

As to `O=C(/C=C1\Nc2ccccc2N=C1NC12CC3CC(CC(C3)C1)C2)c1ccc(Br)cc1`, the GI50 was inactive: > 10 µM.

Take `CCCCC1C(=O)N(c2ccc(S(=O)(=O)Nc3ccccn3)cc2)N(c2ccc(O)c(C(=O)O)c2)C1=O` (stereo unspecified): the GI50 was inactive: > 100 µM.

As to `O=[N+]([O-])[C@@H]1C2C=CC(C2)[C@H]1Cl` (stereo partly specified), the GI50 was inactive: > 100 µM.

Consider `C#CCNC(=O)NCCCCC(NC(C)=O)C(=O)NCc1ccccc1` (stereo unspecified), for which the GI50 was inactive: > 100 µM.

`CCCN(CCC)C(=O)c1c(N2CCN(C)CC2)c2cccnc2n2c(C)cnc12`: the GI50 is inactive: > 100 µM.

As for `O=C(O)c1cc(Cl)cc2c1NC1(N2)C(=O)Nc2ccccc21` (stereo unspecified), the GI50 is inactive: > 100 µM.

Take `C(=N\N=C1NCCN1)/c1ccc2ccccc2c1`: the GI50 is inactive: 14.6 µM.

Turning to `CC(=O)NNc1nc(-c2ccc([N+](=O)[O-])cc2)c(C#N)c(=O)n1C`, the GI50 is inactive: 21 µM.

In the case of `CCCC[C@H](CCc1ccccc1)N(C(=O)OC)N1CCC[C@H]1COC`, the GI50 was inactive: 29.2 µM.

For the compound `CCOC1OC(CO)C(O)CC1n1ccc(=O)[nH]c1=O` (stereo unspecified), the GI50 was inactive: > 100 µM.

`C=C(Cl)C(Cl)(CBr)CCC(Cl)C(C)(C)Cl` (stereo unspecified): the GI50 was inactive: 2.5 µM.

Consider `Nc1nc(NNc2cccc(F)c2)cc(=O)[nH]1`, for which the GI50 was inactive: 45.1 µM.

For the compound `COc1cc(C=O)c(-c2cc3c(cc2C2(C)OCCS2)OCO3)c(OC)c1OC` (stereo unspecified), the GI50 is inactive: 15.1 µM.

In the case of `COc1ccc(/C=C(\C#N)c2nc(N)nc(N3N=C(C)CC3(C)C)n2)c(O)c1`, the GI50 was inactive: 17.7 µM.

Consider `C[C@H]1C2Cc3cc(N)ccc3[C@@]1(C)CCN2CCc1ccccc1`, for which the GI50 was inactive: 70.8 µM.

For `O=C(CC(C(=O)c1cccs1)c1ccc2c(c1)OCO2)c1ccccc1` (stereo unspecified), the GI50 is inactive: > 100 µM.

On to `O=C1C(/N=N/c2ccc(-c3nc4ccccc4[nH]3)cc2)NC(=S)N1c1ccccc1` (stereo unspecified), for which the GI50 is inactive: 87.7 µM.

With `CC1=C(C(=O)Nc2ccccc2)C(c2cccc3ccccc23)C(C(=O)Nc2ccccc2)=C(C)N1`, the GI50 is inactive: 32.4 µM.

With `CCCCCCCCCC(=O)CC(=O)c1ccc(O)cc1O`, the GI50 is inactive: 35.3 µM.

Consider `COC(=O)N1C=CC2=C(C)C3Nc4ccccc4C3C(C)=C2C1` (stereo unspecified), for which the GI50 was inactive: 1.12 µM.

For `C/C=C/[C@@H]1[C@H]2C(=O)[C@]3(Cl)[C@@H](/C=C/C)[C@@H]3C(=O)[C@@]12Cl`, the GI50 is inactive: > 100 µM.

As to `Cc1c(C(=O)O)n2c(C)nnc2c2ccccc12`, the GI50 was inactive: > 100 µM.

Regarding `Cc1cc(Cl)ccc1NC(=O)C(=O)C(C(=O)c1ccccc1)C1OC(=O)c2ccccc21` (stereo unspecified), the GI50 is inactive: > 100 µM.

For the compound `O=C1C2CC=CCC2C(=O)N1n1c(-c2ccccc2)n[nH]c1=O` (stereo unspecified), the GI50 is inactive: > 100 µM.

`CC[C@@]1(O)C[C@H](OC2CC(N(C)C)C(OC3CC(O)C(OC4CCC(=O)C(C)O4)C(C)O3)C(C)O2)c2c(cc3c(c2O)C(=O)c2c(O)ccc(O)c2C3=O)[C@H]1C(=O)OC` (stereo partly specified): the GI50 was active: 0.01 µM.

`O=c1[nH]c(C2CCCCC2)nc2c(Cl)cccc12`: the GI50 was inactive: > 100 µM.

For `COc1ccccc1/C=C/C1=NN(c2cccc(S(=O)(=O)O)c2)C2(C1)C(Cl)C(=O)N2c1nc2ccccc2s1` (stereo unspecified), the GI50 is inactive: > 100 µM.

With `COc1ccc(Cn2c(=O)c(OS(=O)(=O)C(F)(F)F)c(C)c3cc4ccccc4cc32)cc1`, the GI50 is inactive: > 100 µM.

For the compound `Cc1ccc(Oc2ccc(C)cc2[N+](=O)[O-])cc1`, the GI50 is inactive: > 100 µM.

Regarding `Cc1n[nH]c(=O)n1C1CC1`, the GI50 is inactive: > 100 µM.

For the compound `Cc1cc(O)nc(NN2C(Cl)C(=O)C2c2cccc([N+](=O)[O-])c2)n1` (stereo unspecified), the GI50 is inactive: 22.6 µM.

`O=P(Nc1ccccc1)(Oc1ccccc1)N1CCN(c2ccccc2)CC1` (stereo unspecified): the GI50 is inactive: 33.6 µM.

`O=C1N=C(c2ccccc2)OC1C(=O)c1ccccc1` (stereo unspecified): the GI50 is inactive: > 100 µM.

Regarding `C(/Cc1ccc2c(c1)OCO2)=N\N=C1NCCCN1`, the GI50 was inactive: > 100 µM.

Turning to `COc1cc(OC)c2c(O)c(S(=O)(=O)c3ccc(C)cc3)c(=O)oc2c1`, the GI50 is inactive: > 100 µM.

Take `O=C1O[C@H](C(Cl)(Cl)Cl)N2CCCC12` (stereo partly specified): the GI50 was inactive: > 100 µM.

For `CC(C)(NC(=O)OCc1ccccc1)C(=O)OC(=O)C(C)(C)NC(=O)OCc1ccccc1`, the GI50 is inactive: > 100 µM.

In the case of `CCOC(=O)c1ccc(/N=C2/C(=S)N(c3ccc(C(=O)OCC)cc3)C(=N)N2/N=C/c2ccccc2)cc1`, the GI50 is inactive: 42.1 µM.

Consider `CCCCCNC1=CC(=O)c2ccccc2C1=O`, for which the GI50 is inactive: 41.5 µM.

As for `Cc1c(C(=O)/C=C/c2cccc3ccccc23)[n+]([O-])c2ccccc2[n+]1[O-]`, the GI50 is inactive: 16.2 µM.

On to `COC(=O)CN1C(=O)C2(C(=O)OC)OC1(c1ccc([N+](=O)[O-])cc1)C1C(=O)N(c3ccccc3)C(=O)C12` (stereo unspecified), for which the GI50 is inactive: > 100 µM.

On to `CN(CCc1ccccn1)/[N+]([O-])=N/O.CNCCc1ccccn1`, for which the GI50 is inactive: > 100 µM.

For the compound `CCN(CC)/N=C\c1c2ccccc2cc2ccccc12`, the GI50 was inactive: > 100 µM.

As to `Cc1cc(Cl)ccc1NC(=O)CCCC(=O)C1CCC/C1=N\NC(=O)CC#N` (stereo unspecified), the GI50 is inactive: > 100 µM.

On to `COc1cccc(/C=C2/Sc3scc(-c4ccccc4)[n+]3C2=O)c1O`, for which the GI50 is inactive: 41.9 µM.

On to `COc1ccc2sc(-n3nc4ccccc4c3Nc3nc4ccc(OC)cc4s3)nc2c1`, for which the GI50 is inactive: 2.04 µM.

Turning to `O=C(/C=C/c1ccccc1)Oc1cccc(Br)c1`, the GI50 is inactive: > 100 µM.

Turning to `CN(C)CC1CCCC/C1=N/OC(=O)c1ccc(Cl)cc1` (stereo unspecified), the GI50 is inactive: > 100 µM.

Consider `CCOC(OC1=C(C#N)CCC1)C(CC)[Se]c1ccccc1` (stereo unspecified), for which the GI50 was inactive: > 100 µM.

`C[N+](C)(C)C1=NNC2=Nc3ccccc3SC2=C1`: the GI50 is inactive: 15.1 µM.

Consider `N=C(N)NCCCC(NC(=O)OCCCCn1ccc(N)nc1=O)C(=O)O` (stereo unspecified), for which the GI50 was inactive: > 100 µM.

Regarding `O=c1c2c([nH]c3cc4c(cc13)OCO4)-c1ccccc1C2`, the GI50 is inactive: 34.8 µM.

Consider `NC(=O)NCCCC(NC(=O)OCCCCn1ccc(=O)[nH]c1=O)C(=O)O` (stereo unspecified), for which the GI50 is inactive: > 100 µM.

Take `O=C(NC(CS)C(=O)O)c1cccc2c(=O)c3ccccc3[nH]c12` (stereo unspecified): the GI50 was inactive: > 100 µM.

Regarding `O=c1[nH]c2ccc(CC(=S)N3CCN(c4ccccc4)CC3)cc2o1`, the GI50 is inactive: > 100 µM.

`Cn1c(=O)c(C(c2ccc([N+](=O)[O-])cc2)c2c(O)c3ccccc3n(C)c2=O)cc2ccccc21` (stereo unspecified): the GI50 is inactive: 99.8 µM.

Take `C=CCN1/C(=C2\SC(=S)N(c3ccc(C)cc3)C2=O)Sc2c1nc[nH]c2=O`: the GI50 was inactive: > 100 µM.

Consider `CS(=N)(=O)CCC(N)P(=O)(O)O` (stereo unspecified), for which the GI50 was inactive: > 100 µM.

For `CCOc1cc2c(cc1O)C(N)C[C@@H]1[C@@H]2CC[C@]2(C)[C@@H](O)CC[C@@H]12` (stereo partly specified), the GI50 was inactive: 65 µM.

Consider `C=C(Cl)C(=C)CCC(Cl)C(C)(C)Cl` (stereo unspecified), for which the GI50 is inactive: > 100 µM.

Turning to `CN(C)CCNC(=O)c1ccc2nc3c(nc2c1)C(=O)c1ccccc1-3`, the GI50 is inactive: 40.2 µM.

For the compound `CC1=NN(c2cccc(Cl)c2)C2(SCC(=O)N2c2nc3ccccc3s2)/C1=C\c1ccccc1` (stereo unspecified), the GI50 was inactive: 25.3 µM.

Regarding `CN(C)[C@@H]1C(O)=C(C(=O)NCN2CCN(C(=N)NC(=N)N)CC2)C(=O)[C@@]2(O)C(O)=C3C(=O)c4c(O)cccc4[C@@](C)(O)[C@H]3C[C@@H]12`, the GI50 was active: 0.743 µM.

Regarding `CCN(CC)CCC1(C(=O)OC)SCCc2ccc(C)cc21` (stereo unspecified), the GI50 is inactive: > 100 µM.

Turning to `CCOC(=O)C1=C(C)N(Cc2ccc(Cl)cc2Cl)C2(O)C=CC(=O)C3C(=O)N(c4ccccc4)C(=O)C132` (stereo unspecified), the GI50 was inactive: 3.74 µM.

As for `CC(=O)C=C1Nc2ccccc2N1`, the GI50 is inactive: > 100 µM.

On to `O=C(N/N=C/c1ccc([N+](=O)[O-])cc1)c1cccc2nc3ccccc3nc12`, for which the GI50 was inactive: 4.84 µM.

As to `CC1(C)[C@@H]2CC[C@]1(C)[C@H](OC(=O)CSC#N)C2`, the GI50 is inactive: > 100 µM.

Turning to `OC(C/C(=N\N=C(/CC(O)(C(F)(F)F)C(F)(F)F)c1ccccc1)c1ccccc1)(C(F)(F)F)C(F)(F)F`, the GI50 was inactive: > 10 µM.

For `CC(=O)OC1CC2C(C)(C)C(=O)C=C[C@]2(C)C2CCC3(C)C(c4ccoc4)[C@@H](O)[C@H]4O[C@]43[C@]12C` (stereo partly specified), the GI50 is inactive: 26.9 µM.

Take `CCC1(O)CC(OC2CC(N(C)C)C(OC3CC(O)C(OC4OC(C)C(=O)C=C4N)C(C)O3)C(C)O2)c2c(O)c3c(c(O)c2C1C(=O)OC)C(=O)c1cccc(O)c1C3=O` (stereo unspecified): the GI50 is active: 0.01 µM.

Turning to `COc1cc2c(cc1OCCCCCN1C(=O)c3cccc4cccc(c34)C1=O)N=C[C@@H]1CCCN1C2=O`, the GI50 is inactive: 1.54 µM.

Take `c1ccc([I+]c2ccccc2)cc1`: the GI50 was inactive: > 100 µM.

Take `Cc1ccc([N+](=O)[O-])c2c(NCCC[N+](C)(C)[O-])ccnc12`: the GI50 is inactive: 73.8 µM.

For the compound `O=C(CCc1cc(O)cc(O)c1)NCCc1ccc(O)c(O)c1`, the GI50 was inactive: > 100 µM.

For the compound `C=C(C)COc1cc(/N=C(/S)OC(C)C)ccc1Cl`, the GI50 is inactive: 15.9 µM.

The values above are taken from ChEMBL document CHEMBL1201862, “PubChem BioAssay data set” (2004).
